Measured values published in PubChem BioAssay AID1347043 (National Center for Advancing Translational Sciences (NCATS), 2019).
The campaign covered roughly 76,000 compounds. About 1,900 (2.5%) were called active. This list was built around the results that the source calls inconclusive (neither active nor inactive); the mix of calls is not that of the screen. Calls come from the whole dose curve; as a rule, active = well fitted inhibition curve with a large enough effect; inconclusive = small, poorly fitted or top-dose-only effect; inactive = flat fitted curve, though single readings scatter. Potencies beside an inconclusive call are fits to weak or partial responses and may not hold up.

The compounds below were run against Luciferin 4-monooxygenase (Photinus pyralis) (UniProt P08659) (assay: Firefly luciferase inhibition profiling of diverse chemical library using quantitative high-throughput screening). Details: purified P. pyralis luciferase, luminescence, biochemical; activity change, negative = inhibition: at 115 µM (top of the series) unless noted.
Sequence of UniProt P08659 (P08659 whole entry, looked up): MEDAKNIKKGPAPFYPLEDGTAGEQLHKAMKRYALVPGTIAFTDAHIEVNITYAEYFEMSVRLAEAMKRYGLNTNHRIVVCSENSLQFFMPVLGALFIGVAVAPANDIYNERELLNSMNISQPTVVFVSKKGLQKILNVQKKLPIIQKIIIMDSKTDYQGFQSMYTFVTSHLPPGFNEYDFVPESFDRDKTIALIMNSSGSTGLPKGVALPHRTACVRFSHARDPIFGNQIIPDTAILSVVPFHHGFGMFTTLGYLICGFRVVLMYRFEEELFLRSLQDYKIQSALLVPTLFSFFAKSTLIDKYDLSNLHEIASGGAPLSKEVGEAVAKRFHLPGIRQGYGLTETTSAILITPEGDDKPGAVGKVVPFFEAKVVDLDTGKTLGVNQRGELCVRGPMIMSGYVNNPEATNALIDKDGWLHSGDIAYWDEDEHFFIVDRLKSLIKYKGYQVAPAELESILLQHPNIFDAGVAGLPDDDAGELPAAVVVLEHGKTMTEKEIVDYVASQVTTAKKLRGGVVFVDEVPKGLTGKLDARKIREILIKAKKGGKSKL
Outline: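 Biochemical qHTS: compound (6-point titration) added to 10uM D-luciferin plus 10uM ATP in Tris acetate pH 7.5 buffer with Mg, Tween-20 and BSA, then purified enzyme at 10nM; light output imaged.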
% is set by controls: 0 for no effect and ±100 for the full control effect; potency is the fitted concentration of half-maximal effect; tags give direction and shape of the fitted curve.
Note: nearly all actives have a fitted effect of over 65% in size.

| SMILES | activity change, negative = inhibition | Potency |
| --- | --- | --- |
| CC1(C)[C@H](Cc2cc(COc3ccccc3)on2)C[C@@H]1NC(=O)COc1ccccc1 | inactive: -6.54% [at 172 µM] | – |
| CCCC(=O)Nc1cnc(-c2ccc(C)cc2)nc1 | – | active: 2 µM |
| O=C(NCc1ccnc2[nH]ccc12)c1ccc2c(c1)OCO2 | – | inconclusive: 63.1 µM [inhibitor, partial curve] |
| O=C(C[C@@H]1CCNC[C@@H]1Cc1cc(CC2CCCCC2)on1)NC1CC1 | inactive: 10.5% [at 172 µM] | – |
| Cc1ccsc1C(=O)N1CCCn2cc(-c3cccc(C#N)c3)nc21 | – | active: 31.6 µM |
| Cc1ccc(C(=O)NCCn2cccc2-c2nc(-c3ccc4c(c3)OCO4)no2)cc1 | – | inconclusive: 1.41 µM [inhibitor, full curve, poor fit] |
| O=C1c2cnc(-c3cc4ccccc4o3)nc2OCCN1CC1CC1 | – | inconclusive: 0.1 µM [inhibitor, full curve] |
| O=C(Nc1ccc(Cl)nc1)c1ccn2cncc2c1 | – | inconclusive: 100 µM [inhibitor, partial curve] |
| O=C(NCCC1CCN(C(=O)Nc2cc(F)cc(F)c2)CC1)c1ccc(F)cc1 | – | active: 14.1 µM |
| Cc1ccc(C2Cn3nnc(C(=O)N4CCC(C(=O)NC(C)c5ccc(F)cc5)CC4)c3CO2)cc1 (centres undefined) | – | active: 35.5 µM |
| Cc1nn(-c2cccc(Br)c2)c(C)c1[C@@H]1C=C[C@@H](NCc2cccc(C#N)c2)C1 | – | active: 39.8 µM |
| CNC(=O)CCn1ncc2cc(OCc3ccccc3-c3cccc(NC(C)=O)c3)ccc21 | – | active: 8.91 µM |
| CSc1cccc(NC(=O)c2ccc3c(c2)N(C)C2CCCCN2C3=O)c1 (centres undefined) | – | inconclusive: 31.6 µM [inhibitor, full curve] |
| CCn1ccc(C(=O)NC2CCN(c3cc(-c4ccccc4)[nH]n3)CC2)n1 | – | inconclusive: 50.1 µM [inhibitor, partial curve] |
| Cc1ccccc1OCc1nc(C2CN(C(=O)NCc3ccccc3)C2)no1 | – | inconclusive: 39.8 µM [inhibitor, partial curve] |
| FC(F)(F)c1ccc(CN2CC[C@H](c3nc4ccc(C(F)(F)F)cc4[nH]3)C2)cc1 | – | inconclusive: 63.1 µM [inhibitor, full curve, poor fit] |
| CN(C(=O)Nc1ccccc1)C1CCCc2ccccc21 (centres undefined) | – | inconclusive: 56.2 µM [inhibitor, partial curve] |
| O=C(COc1ccccc1)N1CCOc2ccc(CN3CCc4ccccc4C3)cc2C1 | inactive: -5.37% | – |
| Cc1ccc(OCc2cc(C(=O)NC(Cc3ccccc3)c3ccccc3)no2)cn1 (centres undefined) | – | inconclusive: 35.5 µM [inhibitor, partial curve] |
| O=C(c1n[nH]c2c1CCCC2)N1CCC2(CC1)NC(=O)N(c1ccccc1)N2 | – | inconclusive: 50.1 µM [inhibitor, partial curve, poor fit] |
| CC(=O)NCC(=O)N1CCCC(n2cc(-c3nc(-c4ccccc4)no3)nn2)C1 (centres undefined) | – | active: 35.5 µM |
| COc1ccc(C2Cn3cnc(-c4nc(-c5cccs5)no4)c3CO2)cc1 (centres undefined) | – | active: 25.1 µM |
| c1ccc(COc2ccc(CN3CCN(C4CCNC4)CC3)cc2)cc1 (centres undefined) | – | inconclusive: 35.5 µM [inhibitor, partial curve] |

| SMILES | activity change, negative = inhibition | Potency |
| --- | --- | --- |
| c1cc(-c2nc(-c3ccc(OC4CNC4)cc3)no2)ccn1 | – | inconclusive: 22.4 µM [inhibitor, full curve] |
| CC(C)c1ccc(-n2cc(CN3CCN(C(=O)N(C)C)CC3)cn2)cc1 | – | active: 28.2 µM |
| COc1ccc(-c2cc(N3CCCC(NC(=O)c4c[nH]c5ccccc45)C3)n[nH]2)cc1 (centres undefined) | – | active: 10 µM |
| CCOc1ccc(C(=O)N2CCC3(CC2)N=C(c2ccc(C)cc2)NO3)cc1 | – | inconclusive: 50.1 µM [inhibitor, partial curve] |
| CCN1c2cc(C(=O)Nc3ccc(C(C)C)cc3)ccc2C(=O)N2CCCCCC21 (centres undefined) | inactive: -18% | – |
| O=C(O)CCn1ncc2cc(OCc3ccc(-c4cncnc4)cc3)ccc21 | – | active: 50.1 µM |
| COc1ccc(C(=O)N2C[C@@H]3CCCN4CCC[C@@H]([C@H]34)[C@H]2CCCC(=O)N2CCOCC2)cc1 | – | inconclusive: 50.1 µM [inhibitor, partial curve] |
| CCCN1C(=O)CCc2cc(NC(=O)c3ccc(C)s3)ccc21 | – | inconclusive: 63.1 µM [inhibitor, partial curve, poor fit] |
| Cc1ccc2nc(CO[C@H]3CN(C(=O)C4CC4)C[C@H]3F)[nH]c2c1 | – | active: 28.2 µM |
| Cc1ccc(-n2nc(C)c([C@@H]3C=C[C@@H](NC(=O)NC(C)C)C3)c2C)cc1Cl | – | active: 3.55 µM |
| COCCNC(=O)CCCN1C(=O)COc2ccc(C(=O)COc3ccc(C)cc3Cl)cc21 | – | inconclusive: 44.7 µM [inhibitor, partial curve] |
| Cc1ccc(NC2=N[C@H]3[C@@H](O)[C@H](O)C[C@H](C(=O)NCc4cccnc4)[C@H]3S2)cc1 | – | inconclusive: 112 µM [inhibitor, partial curve] |
| O=C(O)CCC(=O)N[C@H]1CCN2C(=O)c3cc(-c4ccc(Cl)cc4)ccc3NC(=O)[C@H]12 | – | inconclusive: 50.1 µM [inhibitor, partial curve, poor fit] |
| Cc1ccccc1OCc1nc(C2CN(C(=O)c3ccc4ccccc4n3)C2)no1 | – | inconclusive: 25.1 µM [inhibitor, full curve] |
| COc1ccccc1C(=O)N1CCCN(c2cc(-c3ccc(Cl)cc3)[nH]n2)CC1 | inactive: 1.96% | – |
| CCc1ccc(C(=O)N2CCC(Oc3nccnc3N(C)C)C2)cc1 (centres undefined) | – | inconclusive: 44.7 µM [inhibitor, partial curve] |
| N#CC1(c2ccc(-c3cccc(CN4CCOCC4)c3)cc2)CCCC1 | – | active: 35.5 µM |
| Cc1ccc(F)cc1S(=O)(=O)N1C[C@@H](C)[C@@](C)(O)C1 | inactive: -4.59% | – |
| Cc1ccc(-c2nc(C(=O)N3CCN(c4cccc(C)c4)CC3)no2)cc1 | – | active: 17.8 µM |
| O=C(c1cnc(Cc2c(Cl)cccc2Cl)[nH]c1=O)N1CCOCC1 | inactive: -3.98% | – |
| CC(C)c1noc(-c2cn(C3CCN(C(=O)c4cccc5[nH]ccc45)CC3)nn2)n1 | inactive: 3.85% | – |
| CCOc1ccc(NC(=O)c2nnn3cc(C)[nH]c(=O)c23)cc1 | – | inconclusive: 31.6 µM [inhibitor, partial curve] |
| O=C1c2cnc(-c3ccsc3)nc2OCCN1CC1CC1 | – | inconclusive: 63.1 µM [inhibitor, full curve] |

| SMILES | activity change, negative = inhibition | Potency |
| --- | --- | --- |
| Cc1ccc2cc(CN3CCN(CC(N)=O)CC3)c(-c3cccs3)nc2c1 | – | active: 12.6 µM |
| CCn1cc(-c2ccc(C)cc2)cc1C(=O)NCc1cccnc1 | – | inconclusive: 50.1 µM [inhibitor, partial curve] |
| CCCS(=O)(=O)N1CC(Oc2ccc(-c3noc(-c4cccnc4)n3)cc2)C1 | inactive: -16.2% | – |
| Cc1ccc(C2NC(=O)N(CC(=O)NC(C)CCc3ccccc3)C3=C2C(=O)OC3)cc1 (centres undefined) | inactive: -6.26% | – |
| COc1ccc(-c2nc(C(=O)NC3CC3)n3ccccc23)cc1 | – | inconclusive: 89.1 µM [inhibitor, partial curve, poor fit] |
| Cc1ccc(-c2noc([C@@H]3Cc4nc[nH]c4CN3C(=O)Nc3cccc(F)c3)n2)cc1 | – | active: 10 µM |
| Cc1cc(NC(=O)c2ccc3c(c2)N(C)C2CCCN2C3=O)ccc1Br (centres undefined) | – | inconclusive: 44.7 µM [inhibitor, partial curve] |
| Cc1csc(NC(=O)C2CC(=O)N(c3n[nH]c4ccccc34)C2)n1 (centres undefined) | inactive: -11.8% | – |
| CCn1c(CO)nnc1C1CC(NC(=O)c2[nH]c3ccc(OC)cc3c2C)C1 (centres undefined) | – | inconclusive: 89.1 µM [inhibitor, single point] |
| CS(=O)(=O)N1CCc2ccc(C(=O)N3CCN(Cc4ccc5c(c4)OCO5)CC3)cc21 | – | inconclusive: 50.1 µM [inhibitor, partial curve] |
| O=c1c2nc(-c3ccc4c(c3)OCO4)ccc2ncn1Cc1ccccn1 | – | inconclusive: 79.4 µM [inhibitor, partial curve] |
| COc1ccc(-c2cc(-c3ccc(N4CCOCC4)nc3)cn3cncc23)cc1 | – | inconclusive: 44.7 µM [inhibitor, partial curve] |
| O=C(N[C@H]1[C@H](O)[C@H](O)C[C@@H]1c1ccc(C(F)(F)F)nc1)c1nc2ccccc2s1 | – | active: 44.7 µM |
| CCOc1ccc(-c2cc3c(=O)n(CCNC(=O)C4(c5ccccc5)CC4)ccn3n2)cc1 | – | active: 25.1 µM |
| O=C(c1ccsc1)N1CC[C@@H]2COCCN(Cc3ccccc3)[C@@H]2C1 | – | inconclusive: 56.2 µM [inhibitor, partial curve, poor fit] |
| Cc1nn(-c2cccc(Br)c2)c(C)c1[C@@H]1C=C[C@@H](NC(=O)c2cccs2)C1 | – | inconclusive: 89.1 µM [inhibitor, single point] |
| Cc1cn2nc(C(=O)Nc3ccc4c(c3)OCCO4)cc2c(N(C)Cc2ccccc2)n1 | – | active: 10 µM |
| Cc1nn(Cc2ccccc2)c(C)c1[C@@H]1C=C[C@@H](NC(=O)C2CCCCC2)C1 | inactive: -14.4% [at 172 µM] | – |
| CCc1cc(N2CCCC(C(=O)c3sccc3C)C2)ncn1 (centres undefined) | inactive: 4.28% | – |
| Cc1ccc(F)cc1CC(=O)N1C[C@@H](CN2CCOCC2)[C@@H](CO)C1 | inactive: 6.3% | – |
| CCc1cccc(NC(=O)Nc2cccc(-c3ccc(N4CCOCC4)nn3)c2)c1 | – | active: 2 µM |
| O=[S+]1([O-])CCN(Cc2ccc(-c3cnc4c(OCc5ccccc5)nccn34)cc2)CC1 | – | inconclusive: 44.7 µM [inhibitor, full curve] |
| COc1cccc(NC(=O)c2ccc3c(c2)NC(C)(COc2cccnc2)CO3)c1 (centres undefined) | – | inconclusive: 50.1 µM [inhibitor, partial curve] |
